# From PubChem BioAssay (Tox21)
# Values joined by “and” are separate entries in the source; they are usually repeats but may differ in a detail not shown here. Equal entries are not always repeated. Inconclusive results, whose numbers are uncertain, are shown with a selection of clear calls. For part of these data: Potencies of inconclusive entries are doubtful fits and often do not repeat. More than one record can exist for a structure, and the calls need not agree. Active and inactive are the calls of the source. Unless noted, the call rests on the fitted dose curve; in most records, active means well fitted curve in the direction sought with a large enough effect in the repeat runs; inconclusive means weak or mixed curves; inactive means no such curve, though single readings can be large; an effect the other way counts as inactive or inconclusive.
# Tests used:
# [1] = target: Estrogen receptor beta (Homo sapiens) (UniProt Q92731); experiment: qHTS assay to identify small molecule antagonists of the estrogen receptor beta (ER-beta) signaling pathway (AID 1259378; active means well fitted inhibition curve with a large enough effect in the signal ratio in the repeat runs, not every such curve was filed as active; inconclusive means weak or mixed curves, or effect the other way; inactive means no such curve, though single readings can be large or run the other way; the % refers to the signal ratio; further: potency means the concentration at half of the fitted maximal effect; on activity, negative = inhibition: on the % scale 0 is the no-effect control and ±100 the full control effect); details: ER-beta-UAS-bla HEK293T, beta-lactamase FRET ratio, 16 h
# Method in brief: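 ER-beta-UAS-bla HEK293T (GripTite) cells in 2% charcoal-stripped FBS medium were preincubated 6 hr at 37C, dosed with compound, then stimulated with 1 nM E2 (final) for 16 hr; beta-lactamase reporter read by B/G FRET fluorescence after 2 hr substrate loading.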
# [2] = qHTS assay to identify small molecule agonists of the estrogen receptor beta (ER-beta) signaling pathway - cell viability counter screen (AID 1259380); details: ER-beta-bla HEK293T viability, CellTiter-Glo luminescence, 16 h; series mostly up to 92.4 µM; further: potency means the concentration at half of the fitted maximal effect; nearly all actives have a fitted effect of over 30% in size
# Method in brief: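 Compounds dissolved in DMSO were pin-transferred onto ER-beta-UAS-bla HEK293T cells that had settled 6 hr, and exposure ran 16 hr at 37C. Following the reporter read, CellTiter-Glo luminescence after 30 min at room temperature indicated cytotoxicity.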
# [3] = qHTS assay to identify small molecule antagonists of the estrogen receptor beta (ER-beta) signaling pathway - cell viability counter screen (AID 1259382); details: ER-beta-UAS-bla HEK293T viability, CellTiter-Glo luminescence, 16 h; series mostly up to 92.4 µM; further: potency means the concentration at half of the fitted maximal effect; nearly all actives have a fitted effect of over 55% in size
# Method in brief: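 CellTiter-Glo ATP luminescence measured after the LiveBLAzer read in the same wells; ER-beta-UAS-bla HEK293T cells, 16 hr compound treatment with 1nM 17-beta-estradiol agonist at 37C, 5% CO2.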
# [4] = qHTS assay to identify small molecule agonists of the estrogen receptor alpha (ER-alpha) signaling pathway in the presence of an antagonist - cell viability counter screen (AID 1259386); details: VM7Luc4E2 viability, CellTiter-Fluor fluorescence, 22 h; series mostly up to 92.4 µM;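 further: potency means the concentration at half of the fitted maximal effect; cells exposed to compounds for 22 h at 37 °C before the viability read; nearly all actives have a fitted effect of over 30% in size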
# Method in brief: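 Using estrogen-depleted VM7Luc4E2 cells, the 15-concentration compound series was applied together with 10.0nM ICI-182,780 and incubated 22hr at 37C/5% CO2. Cell viability was then scored by CellTiter-Fluor.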
# [5] = target: Progesterone receptor (Homo sapiens) (UniProt P06401); experiment: qHTS assay to identify small molecule antagonists of the progesterone receptor (PR) signaling pathway (AID 1346795; active means well fitted inhibition curve with a large enough effect in the signal ratio in the repeat runs, not every such curve was filed as active; inconclusive means weak or mixed curves; the % refers to the signal ratio; further: potency means the concentration at half of the fitted maximal effect; on activity change, negative = inhibition: on the % scale 0 is the no-effect control and ±100 the full control effect); details: PR-UAS-bla HEK293T, beta-lactamase FRET ratio, 16 h; activity change, negative = inhibition: at 92.4 µM (top of the series) unless noted
# Method in brief: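 After 6 hr plating at 37C in 2% stripped-serum medium, PR-UAS-bla HEK293T cells got compounds, then 1 nM R5020. Sixteen hours later, LiveBLAzer substrate was applied for 2 hr at room temperature and fluorescence was recorded.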
# [6] = qHTS assay to identify small molecule antagonists of the TGF-beta/Smad signaling pathway - cell viability counter screen (AID 1346824); details: SBE-bla HEK293T viability, CellTiter-Glo luminescence; series mostly up to 35.3 µM; further: potency means the concentration at half of the fitted maximal effect; nearly all actives have a fitted effect of over 50% in size
# Method in brief: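 SBE-bla HEK 293T cells were plated overnight at 37 C, then given compounds in DMSO plus TGF-beta1 (added as 0.25 ng/mL solution) for 5 hr. After the bla read, CellTiter-Glo was added to the same wells and luminescence read after 30 min at room temperature.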
# [7] = qHTS assay to identify small molecule agonists of the TGF-beta/Smad signaling pathway - cell viability counter screen (AID 1346829); details: SBE-bla HEK293T viability, CellTiter-Glo luminescence, 5 h; series mostly up to 76.8 µM; further: potency means the concentration at half of the fitted maximal effect; nearly all actives have a fitted effect of over 45% in size
# Method in brief: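 Here the cytotoxicity of library compounds is measured in SBE-bla HEK 293T cells treated for 5 hr, using CellTiter-Glo added to wells already read for the beta-lactamase reporter.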
# [8] = qHTS assay to identify small molecule antagonists of the TGF-beta/Smad signaling pathway (AID 1346924; active means well fitted inhibition curve with a large enough effect in the signal ratio in the repeat runs, not every such curve was filed as active; inconclusive means weak or mixed curves; the % refers to the signal ratio; further: potency means the concentration at half of the fitted maximal effect); details: SBE-bla HEK293T, TGF-beta/Smad reporter, beta-lactamase ratio; activity, negative = inhibition: at 76.8 µM (top of the series) unless noted
# Method in brief: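 Read-out was FRET-substrate fluorescence (405 nm excitation; 460 and 530 nm emission) after 2 h at room temperature. Before that, cells carrying a Smad-binding-element beta-lactamase reporter in HEK 293T had been stimulated 5 h at 37 C with TGF-beta1 (0.25 ng/mL addition solution) in the presence of test compound.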
# [9] = qHTS assay to identify small molecule agonists or antagonists of the thyroid stimulating hormone receptor (TSHR) signaling pathway - wild type cell line counter screen (AID 1259384; calls by dose curve; further: potency means the concentration at half of the fitted maximal effect; on cAMP activity change: on the % scale 0 is the no-effect control and ±100 the full control effect); details: HEK293 wild type, cAMP HTRF counter-screen; cAMP activity change: at 92.4 µM (top of the series), stronger effect = higher value unless noted
# Method in brief: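 Wild-type HEK293 cells were plated 18 h at 37 C/5% CO2, pin-dosed with compound plus Ro20-1724 medium, held 30 min at room temperature, then given cAMP-d2 and anti-cAMP-cryptate; fluorescence was read after 1 h. Fifteen concentrations, triplicate.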
# [10] = target: Thyrotropin receptor (Homo sapiens) (UniProt P16473); experiment: qHTS assay to identify small molecule antagonists of the thyroid stimulating hormone receptor (TSHR) signaling pathway (AID 1259385; calls by dose curve; further: nearly all actives have a fitted effect of over 20% in size; further: potency means the concentration at half of the fitted maximal effect; on activity change, negative = inhibition: on the % scale 0 is the no-effect control and ±100 the full control effect); details: TSHR-HEK293 cAMP HTRF, TSH-stimulated antagonist mode; activity change, negative = inhibition: at 92.4 µM (top of the series) unless noted
# Method in brief: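 TSHR-HEK293 cells were plated and held 18 h at 37C/5% CO2, then given compound plus Ro20-1724 and stimulated with TSH at 1.5 ng/mL final. After 30 min at room temperature, cAMP was detected with cAMP-d2/anti-cAMP-cryptate (1 h) by fluorescence.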
# [11] = target: Progesterone receptor (Homo sapiens) (UniProt P06401); experiment: qHTS assay to identify small molecule agonists of the progesterone receptor (PR) signaling pathway (AID 1346784; calls by dose curve; further: potency means the concentration at half of the fitted maximal effect; nearly all actives have a fitted effect of over 30% in size); details: PR-UAS-bla HEK293T, beta-lactamase FRET ratio, 16 h; activation: at 92.4 µM (top of the series) unless noted
# Method in brief: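 The screen uses PR-UAS-bla HEK 293T cells in charcoal-stripped serum (2%). Compounds are applied for 16 hr at 37C after a 6 hr pre-incubation, and reporter activity is detected with a FRET beta-lactamase substrate after 2 hr at room temperature.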
# [12] = qHTS assay to identify small molecule antagonists of the progesterone receptor (PR) signaling pathway - cell viability counter screen (AID 1346798); details: PR-UAS-bla HEK293T viability, CellTiter-Glo luminescence, 16 h; series mostly up to 92.4 µM; further: potency means the concentration at half of the fitted maximal effect; nearly all actives have a fitted effect of over 50% in size
# Method in brief: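 Viability was determined by ATP-based luminescence (CellTiter-Glo) in PR-UAS-bla HEK293T cells cultured in 2% charcoal-stripped serum and incubated 16 hr with compounds under R5020 stimulation.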
# [13] = qHTS assay to identify small molecule agonists of the progesterone receptor (PR) signaling pathway - cell viability counter screen (AID 1346799; calls by dose curve; further: potency means the concentration at half of the fitted maximal effect; nearly all actives have a fitted effect of over 45% in size); details: PR-UAS-bla HEK293T viability, CellTiter-Glo luminescence, 16 h; series mostly up to 92.4 µM
# Method in brief: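 Viability was scored by ATP luminescence (CellTiter-Glo, 30 min, room temperature) in the same wells used for the reporter readout, after 16 hr compound exposure of PR-UAS-bla HEK293T cells.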
# [14] = qHTS assay to identify small molecule agonists of the TGF-beta/Smad signaling pathway (AID 1346859; active means well fitted activation curve with a large enough effect in the signal ratio in the repeat runs, not every such curve was filed as active; inconclusive means weak or mixed curves; the % refers to the signal ratio; further: potency means the concentration at half of the fitted maximal effect); details: SBE-bla HEK293T, TGF-beta/Smad beta-lactamase reporter, 5 h; activation: at 76.8 µM (top of the series) unless noted
# Method in brief: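 Dual-wavelength fluorescence (460/530 nm emission) quantified beta-lactamase expression under the Smad binding element in HEK 293T cells following 5 hr compound treatment at 37 C.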
# [15] = target: Thyrotropin-releasing hormone receptor (Homo sapiens) (UniProt P34981); experiment: qHTS assay to identify small molecule agonists of the thyrotropin-releasing hormone receptor (TRHR) signaling pathway (AID 1346891; calls by dose curve; further: potency means the concentration at half of the fitted maximal effect); details: TRHR-HEK293 calcium fluorescence, agonist mode; series mostly up to 26.5 µM
# Method in brief: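 Kinetic fluorescence (3 min, 1 s intervals) reported intracellular calcium after compound transfer onto TRHR-Hek293 cells pre-loaded with dye for 2 h at 37 °C.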
# [16] = qHTS assay to identify small molecule agonists of the androgen receptor (AR) signaling pathway in the presence of an antagonist - cell viability counter screen (AID 1259379); details: MDA-kb2 viability, CellTiter-Fluor, 16 h; series mostly up to 92.4 µM;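 further: MDA-kb2 human breast cancer cells carrying an MMTV luciferase reporter; on the % scale 0 is the no-effect control and ±100 the full control effect; nearly all actives have a fitted effect of over 25% in size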
# Method in brief: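 Each compound was tested at 15 concentrations on MDA-kb2 cells in the presence of 3.0uM nilutamide. Viability was measured by CellTiter-Fluor fluorescence after a 16 hr incubation at 37C in a CO2-free atmosphere.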
# [17] = target: Thyrotropin-releasing hormone receptor (Homo sapiens) (UniProt P34981); experiment: qHTS assay to identify small molecule antagonists of the thyrotropin-releasing hormone receptor (TRHR) signaling pathway (AID 1346877; active means well fitted inhibition curve with a large enough effect in the repeat runs, not every such curve was filed as active; inconclusive means weak or mixed curves; further: potency means the concentration at half of the fitted maximal effect); details: TRHR-HEK293, TRH-induced calcium fluorescence, antagonist mode; series mostly up to 51.3 µM
# Method in brief: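 Calcium signal in dye-loaded TRHR/HEK293 cells; compounds added 5 min before TRH (1 nM final); fluorescence monitored 3 min at 1 s steps.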
# [18] = activity, negative = inhibition: at 92.4 µM (top of the series) unless noted
# Tags describe the fitted curve by direction and shape or compound fluorescence and quenching.
# UniProt P06401, sequence (P06401 whole entry, looked up): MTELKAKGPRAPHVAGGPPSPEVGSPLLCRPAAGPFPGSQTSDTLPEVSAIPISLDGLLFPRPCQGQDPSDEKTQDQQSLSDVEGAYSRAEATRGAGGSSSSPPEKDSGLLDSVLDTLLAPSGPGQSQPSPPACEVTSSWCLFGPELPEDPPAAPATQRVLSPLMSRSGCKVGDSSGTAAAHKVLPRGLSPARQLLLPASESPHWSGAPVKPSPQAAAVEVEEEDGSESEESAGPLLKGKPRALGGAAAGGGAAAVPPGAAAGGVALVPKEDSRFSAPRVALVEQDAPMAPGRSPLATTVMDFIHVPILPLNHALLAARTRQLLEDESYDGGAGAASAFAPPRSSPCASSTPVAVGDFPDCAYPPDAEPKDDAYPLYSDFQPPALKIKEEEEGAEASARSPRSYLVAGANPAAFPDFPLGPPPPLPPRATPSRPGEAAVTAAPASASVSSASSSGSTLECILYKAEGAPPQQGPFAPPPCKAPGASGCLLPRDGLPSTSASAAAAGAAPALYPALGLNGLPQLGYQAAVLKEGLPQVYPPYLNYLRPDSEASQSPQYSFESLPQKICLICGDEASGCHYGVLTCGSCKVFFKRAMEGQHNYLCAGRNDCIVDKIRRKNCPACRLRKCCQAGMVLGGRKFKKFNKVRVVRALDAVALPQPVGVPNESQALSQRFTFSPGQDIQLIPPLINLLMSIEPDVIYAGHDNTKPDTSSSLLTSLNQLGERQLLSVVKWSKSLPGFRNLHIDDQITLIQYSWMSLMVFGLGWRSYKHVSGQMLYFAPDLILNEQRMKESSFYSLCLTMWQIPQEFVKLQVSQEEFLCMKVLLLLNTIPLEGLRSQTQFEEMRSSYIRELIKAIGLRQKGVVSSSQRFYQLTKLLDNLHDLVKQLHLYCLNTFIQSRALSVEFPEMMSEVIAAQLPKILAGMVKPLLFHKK
# UniProt P16473, sequence (P16473 whole entry, looked up): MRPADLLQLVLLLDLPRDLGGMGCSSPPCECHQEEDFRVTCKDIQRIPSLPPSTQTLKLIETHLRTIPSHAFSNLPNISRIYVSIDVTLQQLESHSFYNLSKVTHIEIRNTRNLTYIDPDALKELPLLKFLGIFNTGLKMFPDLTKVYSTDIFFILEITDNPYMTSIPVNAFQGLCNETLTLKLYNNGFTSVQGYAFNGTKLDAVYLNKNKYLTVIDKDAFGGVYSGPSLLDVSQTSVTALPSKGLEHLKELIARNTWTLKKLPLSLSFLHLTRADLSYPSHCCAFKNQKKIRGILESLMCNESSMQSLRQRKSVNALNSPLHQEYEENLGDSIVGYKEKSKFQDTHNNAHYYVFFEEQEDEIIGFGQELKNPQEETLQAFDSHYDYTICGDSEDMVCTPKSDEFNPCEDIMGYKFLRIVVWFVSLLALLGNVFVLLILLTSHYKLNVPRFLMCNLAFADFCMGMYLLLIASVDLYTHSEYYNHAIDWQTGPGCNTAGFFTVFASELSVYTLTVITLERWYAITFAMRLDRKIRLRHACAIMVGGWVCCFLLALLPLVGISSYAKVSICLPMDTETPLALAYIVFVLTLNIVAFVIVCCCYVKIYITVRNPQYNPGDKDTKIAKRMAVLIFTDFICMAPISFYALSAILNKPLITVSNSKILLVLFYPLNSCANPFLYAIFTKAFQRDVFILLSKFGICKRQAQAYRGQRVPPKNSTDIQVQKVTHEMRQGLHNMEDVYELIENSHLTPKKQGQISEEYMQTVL
# UniProt Q92731, sequence (Q92731 whole entry, looked up): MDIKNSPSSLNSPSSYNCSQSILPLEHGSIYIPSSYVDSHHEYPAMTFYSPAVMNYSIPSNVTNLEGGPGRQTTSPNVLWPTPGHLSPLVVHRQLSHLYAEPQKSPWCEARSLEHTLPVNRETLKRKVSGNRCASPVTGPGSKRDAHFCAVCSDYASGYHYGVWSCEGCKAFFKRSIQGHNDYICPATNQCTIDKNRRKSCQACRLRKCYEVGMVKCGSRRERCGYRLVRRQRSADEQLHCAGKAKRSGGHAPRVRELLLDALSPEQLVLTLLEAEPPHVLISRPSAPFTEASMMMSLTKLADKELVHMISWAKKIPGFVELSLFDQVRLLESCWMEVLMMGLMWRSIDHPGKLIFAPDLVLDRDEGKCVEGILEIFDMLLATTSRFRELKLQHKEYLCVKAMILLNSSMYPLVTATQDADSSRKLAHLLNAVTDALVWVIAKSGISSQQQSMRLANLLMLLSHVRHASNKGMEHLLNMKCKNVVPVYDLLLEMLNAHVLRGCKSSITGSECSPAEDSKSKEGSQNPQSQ
# UniProt P34981, sequence (P34981 whole entry, looked up): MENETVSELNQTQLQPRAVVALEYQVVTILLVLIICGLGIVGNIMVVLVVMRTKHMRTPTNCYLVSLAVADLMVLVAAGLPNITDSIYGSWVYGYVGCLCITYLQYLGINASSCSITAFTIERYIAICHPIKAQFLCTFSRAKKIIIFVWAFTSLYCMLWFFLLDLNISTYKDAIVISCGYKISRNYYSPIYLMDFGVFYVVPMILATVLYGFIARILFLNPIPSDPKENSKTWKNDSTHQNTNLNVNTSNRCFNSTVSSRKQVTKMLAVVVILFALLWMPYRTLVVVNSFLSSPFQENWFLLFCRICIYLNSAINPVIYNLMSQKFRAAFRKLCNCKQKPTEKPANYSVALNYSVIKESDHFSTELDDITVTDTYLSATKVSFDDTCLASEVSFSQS
compound,measurement,setting,value
FC(F)(F)c1ccccc1Cl,"activity, negative = inhibition",[1]; [18],inconclusive: 7.02%
CCc1nc(N)nc(N)c1-c1ccc(Cl)cc1,Potency,[1]; [18],"inconclusive: 43.9 µM [inhibitor, partial curve]"
same,"activity, negative = inhibition",[1]; at 42.5 µM (top of the series),inconclusive: -40.8%
same,"activity, negative = inhibition",[1]; at 92.4 µM (top of the series),inconclusive: -24.2%
same,Potency,[2],"inconclusive: 27.7 µM [cytotoxic, full curve]"
same,Potency,[3],"inconclusive: 30.6 µM [cytotoxic, full curve] and inconclusive: 18.8 µM [cytotoxic, partial curve, poor fit]"
same,Potency,[4],"inconclusive: 69.6 µM [cytotoxic, single point]"
same,"activity change, negative = inhibition",[5],inconclusive: -36.5% [at 42.5 µM]
same,Potency,[6],"inconclusive: 22.2 µM [cytotoxic, full curve] and inconclusive: 21.3 µM [cytotoxic, partial curve]"
same,Potency,[7],"inconclusive: 13.8 µM [cytotoxic, partial curve, poor fit] and active: 16.9 µM"
same,"activity, negative = inhibition",[8],inconclusive: -31.7% [at 35.3 µM]
Nc1ccccc1N,Potency,[1]; [18],inconclusive: 61.1 µM
same,Potency,[2],"inconclusive: 27.3 µM [cytotoxic, single point]"
same,Potency,[9],inconclusive: 43.3 µM
same,"activity change, negative = inhibition",[10],inconclusive: 1.04% and inconclusive: 1.21% [phenotype inactive]
same,Potency,[4],active: 49.7 µM and inconclusive: 21.7 µM [cytotoxic]
same,Potency,[11],"inconclusive: 43.3 µM [falling, partial curve, poor fit]"
same,"activity change, negative = inhibition",[5],inconclusive: -34.2%
same,Potency,[12],"inconclusive: 30.6 µM [rising, full curve]"
same,Potency,[13],"inconclusive: 30.6 µM [rising, full curve, poor fit]"
same,Potency,[14],"inconclusive: 39.8 µM [rising, partial curve]"
same,Potency,[15],"inconclusive: 17.8 µM [activator, partial curve]"
same,Potency,[8],"inconclusive: 44.7 µM [rising, partial curve]"
c1ccc2scnc2c1,Potency,[1]; [18],inactive
same,Potency,[16],inactive
same,Potency,[13],"inconclusive: 15.2 µM [cytotoxic, single point]"
CC/C=C\C/C=C\C/C=C\CCCCCCCC(=O)O,Potency,[1]; [18],inactive
same,Potency,[2],active: 24.1 µM
same,Potency,[3],"inconclusive: 48.1 µM [cytotoxic, partial curve, poor fit]"
same,Potency,[13],"inconclusive: 60.6 µM [cytotoxic, single point] and inconclusive: 24.3 µM [cytotoxic, single point]"
same,Potency,[14],"inconclusive: 54.9 µM [rising, single point]"
same,Potency,[8],"inconclusive: 43.6 µM [fluorescent, partial curve]"
C=CC(=O)OCCn1c(=O)n(CCOC(=O)C=C)c(=O)n(CCOC(=O)C=C)c1=O,Potency,[1]; [18],"inconclusive: 24.3 µM [rising, partial curve]"
same,Potency,[2],"inconclusive: 13.7 µM [cytotoxic, full curve, poor fit]"
same,Potency,[3],"inconclusive: 8.63 µM [cytotoxic, full curve, poor fit]"
same,Potency,[11],"inconclusive: 68.6 µM [cytotoxic, single point]"
same,Potency,[5],"inconclusive: 27.3 µM [falling, partial curve, poor fit]"
same,Potency,[12],active: 21.7 µM
same,Potency,[13],active: 43.3 µM
same,Potency,[7],"inconclusive: 61.6 µM [cytotoxic, single point]"
same,Potency,[14],inconclusive: 54.9 µM
same,"activity, negative = inhibition",[8],inconclusive: 17.9%
COc1cccc(O)c1O,Potency,[1]; [18],"inconclusive: 20.1 µM [activator, partial curve]"
same,Potency,[2],active: 56.6 µM
same,cAMP activity change,[9],inconclusive: -0.0917%
same,"activity change, negative = inhibition",[10],inconclusive: -0.464%
same,Potency,[4],"inconclusive: 63.5 µM [cytotoxic, single point]"
CCOC(=O)CC,"activity, negative = inhibition",[1]; [18],inconclusive: 34.4%
same,Potency,[2],"inconclusive: 21.7 µM [rising, partial curve]"
CO[C@H]1C=CO[C@@]2(C)Oc3c(C)c(O)c4c(O)c(cc(O)c4c3C2=O)NC(=O)/C(C)=C\C=C/[C@H](C)[C@H](O)[C@@H](C)[C@@H](O)[C@@H](C)[C@H](OC(C)=O)[C@@H]1C,Potency,[1]; [18],active: 43.6 µM
same,Potency,[2],inconclusive: 69.1 µM [cytotoxic]
same,Potency,[3],active: 69.1 µM
CCCCCCCCS(=O)C(C)Cc1ccc2c(c1)OCO2 (stereo not given),Potency,[1]; [18],inconclusive: 62.3 µM [inhibitor]
same,Potency,[2],"inconclusive: 31.2 µM [cytotoxic, full curve]"
same,Potency,[10],inconclusive: 69.9 µM
same,Potency,[5],active: 44.1 µM
same,Potency,[12],"inconclusive: 78.4 µM [cytotoxic, single point]"
same,Potency,[13],"inconclusive: 78.4 µM [cytotoxic, single point]"
same,Potency,[17],"inconclusive: 34.5 µM [inhibitor, single point]"
same,"activity, negative = inhibition",[8],inconclusive: 0.509%
